# Measurements reported in PubChem BioAssay AID686970 (National Center for Advancing Translational Sciences (NCATS), 2013).
# In all, about 360,000 compounds went through this assay and about 6,000 (1.7%) were called active. Inconclusive means that the source gave no clear call. Such entries were picked first, then a sample of the others. Calls come from the whole dose curve; as a rule, active = well fitted cell-killing curve with a large enough effect; inconclusive = small, poorly fitted or top-dose-only effect, or effect the other way; inactive = flat fitted curve, though single readings scatter. Potencies of inconclusive entries are left out as doubtful fits.
# Assay: qHTS for induction of synthetic lethality in tumor cells producing 2HG: qHTS for the HT-1080-NT fibrosarcoma cell line;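 note: NT is the 2HG producing partner of a matched IDH1 knockdown line; nearly all actives have a fitted effect of over 55% in size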;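 for activity, negative = less viability: 0% = DMSO-treated cells and -100% = media-only wells without cells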
# Settings: HT-1080-NT fibrosarcoma viability, CellTiter-Glo ATP luminescence, 48 h; activity, negative = less viability: at 46.1 µM (top of the series) unless noted
# Method in brief: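 Read-out is CellTiter-Glo luminescence after 10 minutes at room temperature, following 48 hours' compound treatment of HT-1080-NT cells (750 cells/well, RPMI, 5% FBS, 37 degrees C).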
# Potency is the fitted concentration of half-maximal effect; tags give direction and shape of the fitted curve.
SMILES,Potency,"activity, negative = less viability"
CC(=O)/C=C1/C(=O)Nc2ccccc21,"inconclusive [cytotoxic, single point]",–
COc1ccc(CNC(=O)C2(CC3CC(c4ccccc4)=NO3)CCN(C(=O)C3CCCC3)CC2)cc1 (stereo not given),–,inactive: -5.1%
CCOC(=O)c1ccc(NC(=S)NC2CC(C)(C)NC(C)(C)C2)cc1,"inconclusive [cytotoxic, single point]",–
CCOC1=C2CN(S(=O)(=O)c3ccc(C)cc3)C(c3ccc(CC)cc3)CC2n2c(=O)n(-c3ccccc3)c(=O)n2C1 (stereo not given),–,inactive: -0.652%
COc1ccc(NC(=O)C2CCCN(CCCc3ccccc3)C2)cc1OCC(C)C (stereo not given),"inconclusive [cytotoxic, single point]",–
CC(C(=O)Nc1ccc(Cl)cc1Cl)N1C(=O)NC2(CCCC2)C1=O (stereo not given),–,inactive: 7.73%
CC(=O)NCCNc1nc(NCC2CC2)nc2cc(-c3ccccc3)sc12,"inconclusive [cytotoxic, single point]",–
COc1ccc(Cl)cc1NS(=O)(=O)c1cccc(C(=O)NC2CCN(Cc3ccccc3)CC2)c1,"inconclusive [cytotoxic, single point]",–
Clc1cccc(Cn2ncc3ccccc32)c1,–,inactive: 0.851%
O=C(Nc1ccc2c(c1)CCC2)c1ncoc1-c1ccccc1F,–,inactive: 8.23%
CCOc1cc(CNCc2cccs2)cc(Br)c1OCC,"inconclusive [cytotoxic, single point]",–
Clc1ccc2c(c1)C(N1CCNCC1)Cc1ccccc1S2 (stereo not given),"inconclusive [cytotoxic, single point]",–
C[C@@H]1CN([C@H](C)CO)S(=O)(=O)c2ccc(C#Cc3ccccc3F)cc2O[C@H]1CN(C)C(=O)c1ccc2c(c1)OCO2,"inconclusive [cytotoxic, single point]",–
O=C(c1[nH]c(C(F)(F)F)nc1-c1ccccc1)N1CCN(c2ccccn2)CC1,"inconclusive [cytotoxic, partial curve]",–
Cc1nc(Nc2cccc(O)c2)c2c3c(sc2n1)CCC3,"inconclusive [cytotoxic, partial curve]",–
C=CCOc1ccc(/C=C/C(=O)OCC(=O)N2CCC(c3ccccc3)=N2)cc1,–,inactive: 0.909%
COc1ccc(/C=N/NC(=O)c2ccccc2OC)cc1COc1ccccc1[N+](=O)[O-],"inconclusive [cytotoxic, single point]",–
COc1ccc(CN2CCC(C(=O)Nc3ccc(Oc4ccccc4)nc3)CC2)cc1F,–,inactive: -0.394%
CC1CCc2sc(C(=O)OCC(=O)NCc3ccccc3)cc2C1 (stereo not given),"inconclusive [cytotoxic, single point]",–
Cc1ccc(C)c(-c2nnc(NC(=O)CCS(=O)(=O)c3ccc(F)cc3)o2)c1,–,inactive: 12.5%
O=C(O)C(CCc1ccccc1)(Cc1ccccc1)C(=O)O,"inconclusive [rising, partial curve]",–
COc1cc(OC)c2c(-c3ccccc3)cc(=O)oc2c1C(CCN1CCCCC1)c1ccc(N(C)C)cc1 (stereo not given),–,inactive: -20.9%
OCCN1CCN(c2nc(-c3ccccc3)c3cc(Cl)ccc3n2)CC1,"inconclusive [cytotoxic, single point]",–
COc1cccc(C2NC(c3cccc(OC)c3O)C(C)C(=O)C2C)c1O (stereo not given),"inconclusive [cytotoxic, single point]",–

SMILES,Potency,"activity, negative = less viability"
COc1ccc(N(Cc2cc3ccccc3[nH]c2=O)S(=O)(=O)c2ccccc2)cc1,"inconclusive [cytotoxic, single point]",–
CCCCNCCCOc1cc(Cl)ccc1Cl,–,inconclusive: -32.3% [cytotoxic]
COc1ccc(-c2cn3ccccc3n2)cc1,"inconclusive [cytotoxic, partial curve]",–
CCOC(=O)NC1CCc2cc(OC)c(OC)c(OC)c2-c2ccc(SC)c(=O)cc21 (stereo not given),active: 0.0092 µM,–
Cc1cccc(Nc2nc(N)c([N+](=O)[O-])c(NCc3ccco3)n2)c1,"inconclusive [cytotoxic, single point]",–
O=C(NCc1ccc(F)cc1)C(=O)Nc1nc(C23CC4CC(CC(C4)C2)C3)cs1,"inconclusive [cytotoxic, single point]",–
Cc1cc(C(=O)COc2cc(F)ccc2[N+](=O)[O-])c(C)n1CC1CCCO1 (stereo not given),–,inactive: -6.51%
CCCc1cc(N2CCN(c3ccccn3)CC2)n2nc(C)c(-c3ccccc3)c2n1,–,inactive: -1.63%
CCOCCCNC(=O)/C(C#N)=C/c1ccc([N+](=O)[O-])o1,"inconclusive [cytotoxic, single point]",–
CC(=O)c1cccc(NC(=S)N2CCCC2)c1,–,inconclusive: 33.7%
CC(=O)N(CCc1ccccc1)c1ccc2c(c1)C1CC2CCN1C(=O)OCc1ccccc1 (stereo not given),"inconclusive [cytotoxic, single point]",–
CN(C(=O)CSc1nnc(Nc2ccccc2)s1)c1c(N)n(Cc2ccccc2)c(=O)[nH]c1=O,–,inactive: 10.4%
CC(=O)Oc1ccc(N(C(C)=O)S(=O)(=O)c2ccc(C)cc2C)c2ccccc12,"inconclusive [cytotoxic, partial curve]",–
Cc1ccc(Cn2nc(C)c(NC(=O)c3cc(-c4ccc5c(c4)OCO5)on3)c2C)cc1,active: 8.91 µM,–
Oc1cc2c(cc1O)CN(C(=S)NCCc1ccc(Cl)cc1)CCC2,active: 31.6 µM,–
COc1cccc(-c2nc(NCc3ccccc3)c3ccccc3n2)c1O,"inconclusive [cytotoxic, single point]",–
CCCCCC(=O)O[C@]1(C(C)=O)CC[C@H]2[C@@H]3CCC4=CC(=O)CC[C@]4(C)[C@H]3CC[C@@]21C,"inconclusive [cytotoxic, single point]",–
CCN(CC)c1ccc(-c2nn3c(-c4n[nH]c5c4CCC5)nnc3s2)cc1,active: 1.46 µM,–
C=CCOc1ccc(C(=O)c2ccccc2)c(OCC(=O)NC2(C#N)CCCC2)c1,"inconclusive [cytotoxic, single point]",–
O=C(Cc1cccs1)NCCS(=O)(=O)N1CCN(c2ccccc2F)CC1,"inconclusive [cytotoxic, single point]",–
Cc1ccc(-n2c(SCC(=O)NC3CCS(=O)(=O)C3)nc3ccccc3c2=O)cc1C (stereo not given),–,inactive: -1.09%
CCN1CCN(c2ccc(S(=O)(=O)N3CCOCC3)cc2NC(=O)c2ccc(Cl)s2)CC1,–,inactive: -2.33%
CCOC(=O)c1cnc2cc(C)nn2c1C,"inconclusive [rising, full curve]",–
CCCS(=O)(=O)NC(=O)C1(C)CCCN(C(=O)/C=C/c2ccccc2)C1 (stereo not given),"inconclusive [rising, partial curve]",–

SMILES,Potency,"activity, negative = less viability"
C=CCn1c(CCc2cc(C(C)(C)C)c(O)c(C(C)(C)C)c2)n[nH]c1=S,"inconclusive [cytotoxic, single point]",–
COc1ccccc1NC(=O)N(Cc1ccco1)Cc1cc2cc(C)cc(C)c2[nH]c1=O,"inconclusive [cytotoxic, partial curve]",–
O=C(Nc1ccc2c(c1)CN(Cc1ccc(CO)o1)CC2)c1ccc(C(F)(F)F)cc1,–,inactive: -13.6%
Cc1[nH]c(=O)c(C(=O)/C=C/c2ccccc2)c2c1CCCC2,active: 7.08 µM,–
CCN(CC)c1ccc(N=Cc2cc(Br)ccc2O)cc1,"inconclusive [cytotoxic, single point]",–
Cn1c(=O)c2[nH]c(CCC3CCCC3)nc2n(C)c1=O,–,inactive: 1.03%
COc1ccc(CNC(=S)Nc2ccc3nc(N4CCN(C)CC4)cc(C)c3c2)cc1,active: 16.4 µM,–
CC(C)(C)NC(=O)NC(=O)CSc1nnc(-c2ccccc2F)n1N,–,inactive: 0.916%
COc1ccc(CN(C2CCCC2)S(=O)(=O)c2ccc(-n3cnnn3)cc2)cc1OC,–,inactive: 0.382%
CCOC(=O)Cn1c(=NC(=O)c2sc3ccccc3c2Cl)sc2cc(S(N)(=O)=O)ccc21,"inconclusive [cytotoxic, single point]",–
CCCNC(=O)C1(C)CCCN(Cc2ccccc2Cl)C1 (stereo not given),–,inactive: 11.5%
Cc1ccc(-n2nc3c(=O)n(CCCC(=O)NCCc4ccccc4C)nc(C)c3c2C)cc1,–,inactive: -0.159%
O=C(Nc1cnccn1)Nc1ccc(Cl)cc1Cl,–,inactive: 27.8%
CCCCCCCCOC(=O)c1cc([N+](=O)[O-])c(Sc2ncnc3nc[nH]c23)c([N+](=O)[O-])c1,"inconclusive [cytotoxic, single point]",–
O=C(Nc1cccnc1)c1cc([N+](=O)[O-])ccc1Cl,"inconclusive [cytotoxic, single point]",–
Cc1cc(NC(=O)CN(C)CCOc2ccccc2)ccc1Br,"inconclusive [cytotoxic, partial curve]",–
COc1ccc(OCCN2CCC(C(=O)NC(c3ccsc3)c3ccccc3C)CC2)cc1 (stereo not given),"inconclusive [cytotoxic, single point]",–
COC1=CC(=O)c2c(ccc3ncnc(N)c23)C1=O,active: 4.11 µM,–
CC(C)C(=O)N1CCN(c2ccc(NC(=O)c3ccc4c(c3)OCCO4)cc2)CC1,"inconclusive [cytotoxic, single point]",–
CC(Nc1ccc(Br)cc1)C(=O)NC(=O)NC1CCCCC1 (stereo not given),"inconclusive [cytotoxic, single point]",–
COc1cc(NC(=O)c2cc(C(C)C)on2)cc(OC)c1OC,–,inconclusive: 32.8%
C[C@@H]1C[C@H]2[C@@H]3C[C@H](F)C4=CC(=O)C=C[C@]4(C)[C@@]3(Cl)[C@@H](O)C[C@]2(C)[C@H]1C(=O)COC(=O)C(C)(C)C,"inconclusive [rising, full curve, poor fit]",–
